Experimental data: the supplement of paper PMC4604168 (melanoma cell lines)
Some of the results follow. Most values come without repeats; read them as rough.

Assays:
Assay in all cases: cell count relative to DMSO control; melanoma cells; higher = more viable cells
Conditions in all cases: library dose: standard library concentration; 72 h
G361 = system: G361
IPC-298 = system: IPC-298
IST-MEL1 = system: IST-MEL1
LB2518-MEL = system: LB2518-MEL
LOXIMVI = system: LOXIMVI
MEL-HO = system: MEL-HO
MZ2-MEL = system: MZ2-MEL
MeWo = system: MeWo
RPMI7951 = system: RPMI7951
RVH-421 = system: RVH-421
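Note: cells treated in 1,536-well plates, then fixed and DAPI-stained, with nuclei counted from automated high-throughput microscope images.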

Compound	cell count (G361)	cell count (IPC-298)	cell count (IST-MEL1)	cell count (LB2518-MEL)	cell count (LOXIMVI)	cell count (MEL-HO)	cell count (MZ2-MEL)	cell count (MeWo)	cell count (RPMI7951)	cell count (RVH-421)
Cn1c(=O)n(-c2ccc(C(C)(C)C#N)cc2)c2c3cc(-c4cnc5ccccc5c4)ccc3ncc21 + O=C(O)C(=O)Nc1sc2c(c1C(=O)O)CCNC2 [TCS401] (first compound 0.02 µM, partner dose 8.33333 µM)	68.4%	87.7%	79.2%	86.6%	82.7%	73.9%	88.2%	58.9%	63.1%	72.4%
CC(C)C[C@H](NC(=O)[C@H](Cc1ccccc1)NC(=O)c1cnccn1)B(O)O [Bortezomib] + Cc1cc([N+](=O)[O-])ccc1NS(=O)(=O)c1cc(Cl)ccc1Cl [FH535] (first compound 0.005 µM, partner dose 5 µM)	0.338%	13.2%	13.6%	2.15%	48.9%	29.4%	7.27%	8.76%	11.3%	26.9%
COc1ccc(C2=N[C@@H](c3ccc(Cl)cc3)[C@@H](c3ccc(Cl)cc3)N2C(=O)N2CCNC(=O)C2)c(OC(C)C)c1 [Nutlin-3] + CCc1ccc(CCOc2ccc(CC3SC(=O)NC3=O)cc2)nc1 [pioglitazone] (first compound 0.5 µM, partner dose 10 µM)	82.8%	106%	87.4%	79.8%	84.4%	86.2%	97.1%	107%	103%	67.5%
Cc1cn(-c2cc(NC(=O)c3ccc(C)c(Nc4nccc(-c5cccnc5)n4)c3)cc(C(F)(F)F)c2)cn1 [nilotinib] + NC(=O)c1ccc(N(C(N)=O)c2c(F)cccc2F)nc1-c1ccc(F)cc1F [VX702] (first compound 1 µM, partner dose 2 µM)	82.1%	89.1%	97.6%	99.8%	190%	76.3%	85.5%	101%	97.8%	99.2%
COc1ccc(C2=N[C@@H](c3ccc(Cl)cc3)[C@@H](c3ccc(Cl)cc3)N2C(=O)N2CCNC(=O)C2)c(OC(C)C)c1 [Nutlin-3] + CCCCCCCCc1ccc(CCC(N)(CO)CO)cc1 [fingolimod] (first compound 0.5 µM, partner dose 10 µM)	0.485%	36.2%	4.23%	0.182%	16.3%	3.04%	11.5%	21.9%	1.45%	2.35%
Cc1cn(-c2cc(NC(=O)c3ccc(C)c(Nc4nccc(-c5cccnc5)n4)c3)cc(C(F)(F)F)c2)cn1 [nilotinib] + C[C@@H]1CCN(C(=O)CC#N)C[C@@H]1N(C)c1ncnc2[nH]ccc12 [CP690550] (first compound 1 µM, partner dose 5 µM)	99%	121%	105%	89.4%	100%	104%	122%	90.9%	79%	93.6%
Cc1cn(-c2cc(NC(=O)c3ccc(C)c(Nc4nccc(-c5cccnc5)n4)c3)cc(C(F)(F)F)c2)cn1 [nilotinib] + CC(C)(C)c1cnc(CSc2cnc(NC(=O)C3CCNCC3)s2)o1 [SNS-032] (first compound 1 µM, partner dose 0.05 µM)	105%	115%	82.5%	57.4%	100%	87.6%	102%	101%	48.7%	82.8%
COc1ccc(C2=N[C@@H](c3ccc(Cl)cc3)[C@@H](c3ccc(Cl)cc3)N2C(=O)N2CCNC(=O)C2)c(OC(C)C)c1 [Nutlin-3] + O=C(O)c1ccc2c(c1)nc(Nc1cccc(Cl)c1)c1ccncc12 [CX4945] (first compound 0.5 µM, partner dose 2 µM)	46.8%	76.2%	74.8%	73.5%	34.2%	59.3%	70.6%	81.7%	81.7%	78.5%
Cc1cn(-c2cc(NC(=O)c3ccc(C)c(Nc4nccc(-c5cccnc5)n4)c3)cc(C(F)(F)F)c2)cn1 [nilotinib] + NC(=O)Nc1cc(-c2cccc(F)c2)sc1C(=O)N[C@H]1CCCNC1 [AZD7762] (first compound 1 µM, partner dose 0.1 µM)	96%	96.3%	80.5%	40.4%	82.2%	66.7%	111%	63.9%	27.8%	93.8%
Cc1cc(Nc2cc(N3CCN(C)CC3)nc(/C=C/c3ccccc3)n2)n[nH]1 + Oc1nc(-c2ccc(C(F)(F)F)cc2)nc2c1CSCC2 [XAV939] (first compound 0.2 µM, partner dose 10 µM)	91.7%	93.5%	79.9%	79.5%	89.4%	79.1%	94%	77.8%	83.7%	102%
CC(C)C[C@H](NC(=O)[C@H](Cc1ccccc1)NC(=O)c1cnccn1)B(O)O [Bortezomib] + C=C(c1ccc(C(=O)O)cc1)c1cc2c(cc1C)C(C)(C)CCC2(C)C [Bexarotene] (first compound 0.005 µM, partner dose 10 µM)	1.75%	6.54%	6.15%	0.592%	15.8%	27.5%	4.26%	14.7%	7.23%	4.79%
Cn1c(=O)n(-c2ccc(C(C)(C)C#N)cc2)c2c3cc(-c4cnc5ccccc5c4)ccc3ncc21 + CC(C)C[C@H](NC(=O)[C@H](Cc1ccccc1)NC(=O)c1cnccn1)B(O)O [Bortezomib] (first compound 0.02 µM, partner dose 0.005 µM)	1.7%	22.3%	21.7%	6.78%	21.2%	41.5%	4.59%	22.2%	9.37%	32.9%
Cc1cc(Nc2cc(N3CCN(C)CC3)nc(/C=C/c3ccccc3)n2)n[nH]1 + O=C(Nc1ccccc1)c1cc([N+](=O)[O-])ccc1Cl [GW9662] (first compound 0.2 µM, partner dose 10 µM)	81.7%	94.9%	89.5%	75.4%	64.7%	79.2%	74.6%	83.7%	75%	75.2%
COc1ccc(C2=N[C@@H](c3ccc(Cl)cc3)[C@@H](c3ccc(Cl)cc3)N2C(=O)N2CCNC(=O)C2)c(OC(C)C)c1 [Nutlin-3] + CCCS(=O)(=O)Nc1ccc(F)c(C(=O)c2c[nH]c3ncc(Cl)cc23)c1F [PLX4720] (first compound 0.5 µM, partner dose 0.4 µM)	63.4%	71.6%	106%	78.7%	79.8%	100%	75.9%	119%	146%	73.9%
Cc1cn(-c2cc(NC(=O)c3ccc(C)c(Nc4nccc(-c5cccnc5)n4)c3)cc(C(F)(F)F)c2)cn1 [nilotinib] + COc1ccc2c(c1)CCC1C2CCC2(C)C(NCCCCCCN3C(=O)C=CC3=O)CCC12 [U73122] (first compound 1 µM, partner dose 2 µM)	87.5%	103%	82.9%	90.2%	83.3%	84.7%	102%	49.5%	29.7%	89.5%
Cc1cn(-c2cc(NC(=O)c3ccc(C)c(Nc4nccc(-c5cccnc5)n4)c3)cc(C(F)(F)F)c2)cn1 [nilotinib] + CC1(C)NC(=O)N(c2ccc([N+](=O)[O-])c(C(F)(F)F)c2)C1=O [nilutamide] (first compound 1 µM, partner dose 5 µM)	68.8%	102%	96.6%	77.5%	83.3%	98.1%	96.6%	78.3%	86.5%	87.2%
Cc1cn(-c2cc(NC(=O)c3ccc(C)c(Nc4nccc(-c5cccnc5)n4)c3)cc(C(F)(F)F)c2)cn1 [nilotinib] + COc1cc2c(Oc3ccc4[nH]c(C)cc4c3F)ncnc2cc1OCCCN1CCCC1 [cediranib] (first compound 1 µM, partner dose 2 µM)	91.6%	128%	111%	102%	70.9%	120%	120%	102%	55.9%	86.6%
Cn1c(=O)n(-c2ccc(C(C)(C)C#N)cc2)c2c3cc(-c4cnc5ccccc5c4)ccc3ncc21 + Cc1cc([N+](=O)[O-])ccc1NS(=O)(=O)c1cc(Cl)ccc1Cl [FH535] (first compound 0.02 µM, partner dose 5 µM)	39.9%	42.4%	46.2%	76%	63.6%	42.5%	45.5%	57.1%	63.5%	65.2%
Cn1c(=O)n(-c2ccc(C(C)(C)C#N)cc2)c2c3cc(-c4cnc5ccccc5c4)ccc3ncc21 + COc1cc2ncnc(Nc3ccc(Oc4ccccc4)cc3)c2cc1OC [SrcI1] (first compound 0.02 µM, partner dose 10 µM)	22.7%	55.4%	65.3%	64.5%	55.5%	62.2%	54.6%	41.8%	36.8%	71.4%
Cc1cn(-c2cc(NC(=O)c3ccc(C)c(Nc4nccc(-c5cccnc5)n4)c3)cc(C(F)(F)F)c2)cn1 [nilotinib] + C[C@@H](N)c1ccc(C(=O)Nc2ccnc3[nH]ccc23)cc1 [RKI983] (first compound 1 µM, partner dose 2 µM)	83.1%	91.6%	86.4%	95.6%	104%	54.7%	37.9%	65.1%	34.4%	17.9%
Cc1cc(Nc2cc(N3CCN(C)CC3)nc(/C=C/c3ccccc3)n2)n[nH]1 + Oc1cc(-c2nc(-c3ccccc3)[nH]c2-c2ccncc2)ccc1Cl [L779450] (first compound 0.2 µM, partner dose 1 µM)	64.4%	77.7%	89.3%	82%	98.1%	81.7%	88.5%	61%	54.3%	72.3%
